# PMC6919601, “Identification of Plasmodium dipeptidyl aminopeptidase allosteric inhibitors by high throughput screening” (PLoS ONE, 2019)
# The whole screen tested about 110,000 compounds, of which about 230 (0.21%) showed an effect of 50% or more. The list shows a part of the results.
# Target: DPAP1 (Plasmodium falciparum, UniProt Q8IIJ9)
# Experiment: primary screen, percent inhibition; read by cleavage of a fluorogenic dipeptide substrate; higher = more effect of the substance
# Parameters: species or system P. falciparum D10 trophozoite lysates; single well
# 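Further: 30 min substrate incubation versus DMSO and 10 µM JCP410 controls.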
# DPAP1, sequence (Q8IIJ9 whole entry, looked up): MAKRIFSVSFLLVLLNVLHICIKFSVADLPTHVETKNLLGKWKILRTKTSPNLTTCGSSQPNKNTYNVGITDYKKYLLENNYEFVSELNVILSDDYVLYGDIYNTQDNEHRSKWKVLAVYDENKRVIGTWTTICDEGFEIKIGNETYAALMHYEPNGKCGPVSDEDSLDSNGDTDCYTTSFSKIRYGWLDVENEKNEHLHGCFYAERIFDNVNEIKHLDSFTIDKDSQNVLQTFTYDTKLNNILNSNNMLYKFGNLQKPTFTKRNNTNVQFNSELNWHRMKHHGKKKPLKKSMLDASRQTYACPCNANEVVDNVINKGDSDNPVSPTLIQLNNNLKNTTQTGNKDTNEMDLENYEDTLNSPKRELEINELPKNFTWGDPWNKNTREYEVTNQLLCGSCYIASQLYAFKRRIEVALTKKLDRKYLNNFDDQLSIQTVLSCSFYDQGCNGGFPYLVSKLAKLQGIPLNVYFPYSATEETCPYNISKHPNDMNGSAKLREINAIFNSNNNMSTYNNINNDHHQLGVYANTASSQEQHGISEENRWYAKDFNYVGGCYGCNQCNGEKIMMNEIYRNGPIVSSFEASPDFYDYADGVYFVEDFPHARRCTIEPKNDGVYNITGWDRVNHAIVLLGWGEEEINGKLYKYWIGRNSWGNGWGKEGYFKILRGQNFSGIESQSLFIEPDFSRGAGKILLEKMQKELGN
row,Structure (SMILES),% Inhibition @ 10 uM [%]
1,COc1ccc(C2=NC3(CCN(C(=O)c4ccccc4F)CC3)NC2=O)cc1,2.79
2,CCCCOc1ccc(-c2nc(/C=N/c3cccnc3)c(O)o2)cc1,10.7
3,NS(=O)(=O)c1ccc(NC(=O)/C=C/C(=O)O)cc1,-1.45
4,C/N=C1\S/C(=C\c2ccc(-c3cccc(C(=O)O)c3)o2)C(=O)N1C,0.611
5,Cc1ccc(-n2nc3c([n+]2[O-])CCc2nonc2-3)cc1,-4
6,CCNC(=O)C1CCN(c2nn3cc(-c4ccc(C)cc4)nc3s2)CC1,-1.41
7,OCc1ccccc1CN1CCCCC1,-4.67
8,Cc1cc(C)nc(SCC(=O)Nc2ccccc2C(C)C)n1,1.28
9,Cc1cc2nc(COc3ccc(C)c(C)c3)cc(=O)n2o1,-3.95
10,CO/C(O)=C1\C(C)=NC(=S)NC1c1cccc(Br)c1 (stereo not shown),26.7
11,O=C(Cc1nnc(-c2ccc(Br)cc2)o1)NC1CCCCCC1,-6.6
12,COc1ccc(CCNS(=O)(=O)c2ccc3nc(O)ccc3c2)cc1OC,2.19
13,O=C(NCc1ccccn1)Nc1cccc(Cl)c1,-8.64
14,CN(CCNC(=O)CCn1nc(-c2ccc(Cl)cc2)ccc1=O)Cc1ccccc1,1.62
15,CCCCNC(=O)c1ccc(CS(=O)(=O)c2ccccc2C)o1,-3.09
16,CCOC(=O)c1cnc(SCC(=O)N(C)C2CCCCC2)nc1N,-2.83
17,CCn1c(C(=O)NCCc2ccccc2)cc2oc3ccccc3c21,-3.96
18,COc1ccc(Br)cc1CN1C(=O)c2ccccc2C1C(=O)NC1CCC(C)CC1 (stereo not shown),6.82
19,O=S(=O)(Nc1ccc(-c2cn3cccnc3n2)cc1)c1cccc2ccccc12,-3.45
20,N=c1n(CCO)c2ccccc2n1CCOc1ccc(Br)cc1,-11.4
21,COc1ccccc1C(=O)Nc1ccccc1C(=O)O,-6.71
22,Oc1c2nc3ccc(F)cc3c-2ncn1CCN1CCN(Cc2ccccc2)CC1,-1.74
23,COc1ccc(N(C(C)C(=O)Nc2ccc(C(C)C)cc2)S(C)(=O)=O)cc1 (stereo not shown),-1.57
24,Cc1ccc(S(=O)(=O)N2CCCC(C(=O)Nc3ccnc4ccccc34)C2)cc1 (stereo not shown),-4.67
25,CCOc1ccccc1CN1CCC(O)CC1,1.48
26,O=C(Cc1ccccc1)Nc1nc2nc3c(c(O)n2n1)CCC3,-6.81

row,Structure (SMILES),% Inhibition @ 10 uM [%]
1,Cc1c(Br)c(C(=O)N2CCc3ccccc32)nn1C,6.17
2,COc1ccc2[nH]cc(/C=C3\SC(=O)NC3=O)c2c1,0.161
3,COCC(C)NCc1ccccc1F (stereo not shown),2.78
4,O=C(CCC(=O)N1Cc2ccccc2Oc2ncccc21)N1CCC2(CC1)OCCO2,5.34
5,Cc1ccc(-c2nnc(SCc3nc(-c4ccccc4)no3)n2C)cc1,2.99
6,O=C(NCc1ccco1)c1ccc(COCC(F)(F)C(F)F)cc1,1.34
7,COC(=O)c1ccc(C(=O)N(CCCN(C)C)c2nc3c(C)cccc3s2)cc1,6.31
8,Cc1nonc1NC(=O)c1oc2ccccc2c1C,3.51
9,N#CC1=C(N)SC(N)=C(C#N)C1c1cccc(Cl)c1,19.5
10,O=C(c1ccc(Br)o1)N1CCN(c2ccccn2)CC1,-1.35
11,CC(C)(C)c1ccc(CC2CC2(Cl)Cl)c([N+](=O)[O-])c1 (stereo not shown),4.12
12,Cn1c(C(=O)O)c(CC(=O)NCc2cccnc2)c2ccccc21,2.84
13,COc1cc(NC(=O)c2ccc(F)cc2)c(OC)cc1Cl,0.661
14,Cc1ccsc1/C=c1\sc2ncnn2c1=O,-3.33
15,CC(=O)Nc1c(C(=O)N2CCN(c3ncccn3)CC2)cnn1-c1ccccc1Cl,1.17
16,CC1(C)CC(NC(=O)c2ccccc2)CC(C)(CNC(=O)c2ccccc2)C1 (stereo not shown),0.331
17,Cc1cccc(CNCc2c(C(=O)O)n(Cc3ccccc3C)c3cc(C)ccc23)c1,-5.04
18,CCCc1cc(=O)oc2cc3occ(C(C)(C)C)c3cc12,2.21
19,CC(C)OCCCNC(=O)CCCN1C(=O)CSc2ncccc21,1.03
20,COc1ccc(OC)c(CNC(=O)c2cc(-c3cccs3)nc3ccccc23)c1,3.55
21,CCCCN(C)C(=O)NCc1noc2ccccc12,1.41
22,O=C(Nc1ccc(Br)cc1)c1cccc2c1-c1ccccc1C2=O,-0.473
23,NC(=O)C1CCN(S(=O)(=O)c2cccc(C(F)(F)F)c2)CC1,2.62
24,COc1ccc(C(=O)N2c3ccccc3C=CC2C#N)cc1 (stereo not shown),0.408
25,Cc1[nH]c2ccccc2c1CCC(=O)NC(C)C,-6.25
26,COc1cc(OC)c(CN2CC(C)CC(C)C2)cc1Br (stereo not shown),-3.6
